For test [1], the target named is GST-tagged OPTN(26–119) M44Q/M54Q (human) (UniProt Q96CV9). Kind of test: pull-down; GST-tagged OPTN and Trx-His-tagged TBK1 mixed at 1:4, glutathione sepharose 4B beads; 50 mM Tris pH 7.5, 100 mM NaCl, 1 mM DTT, 1 mM EDTA; Coomassie or anti-His blot; both purified.
The target in test [2] is GST-tagged OPTN(26–119) L47Q/L54Q (human) (UniProt Q96CV9). The test is described as above.
The target of test [3] is Flag-tagged full-length OPTN (residues 1–577) (human) (UniProt Q96CV9). Kind of test: co-IP; Flag-tagged OPTN and GFP-tagged TBK1 co-transfected in HEK293T; lysate on anti-Flag agarose beads, 4 h at 4 °C; western blot with anti-Flag and anti-GFP. For orientation: In western blotting, separated proteins are transferred to a membrane and probed.
In test [4] the target is Flag-tagged OPTN(120–577) (human) (UniProt Q96CV9). Described as above.

Protein sequences, listed by entry. Tags and fused reporters are not part of them. Lines headed by an entry give the natural chain unless they say otherwise; changes in a name come on top. Chains listed by the source or under a name are the forms on record and can include a tag or linker. Residues count along the entry.
UniProt Q96CV9: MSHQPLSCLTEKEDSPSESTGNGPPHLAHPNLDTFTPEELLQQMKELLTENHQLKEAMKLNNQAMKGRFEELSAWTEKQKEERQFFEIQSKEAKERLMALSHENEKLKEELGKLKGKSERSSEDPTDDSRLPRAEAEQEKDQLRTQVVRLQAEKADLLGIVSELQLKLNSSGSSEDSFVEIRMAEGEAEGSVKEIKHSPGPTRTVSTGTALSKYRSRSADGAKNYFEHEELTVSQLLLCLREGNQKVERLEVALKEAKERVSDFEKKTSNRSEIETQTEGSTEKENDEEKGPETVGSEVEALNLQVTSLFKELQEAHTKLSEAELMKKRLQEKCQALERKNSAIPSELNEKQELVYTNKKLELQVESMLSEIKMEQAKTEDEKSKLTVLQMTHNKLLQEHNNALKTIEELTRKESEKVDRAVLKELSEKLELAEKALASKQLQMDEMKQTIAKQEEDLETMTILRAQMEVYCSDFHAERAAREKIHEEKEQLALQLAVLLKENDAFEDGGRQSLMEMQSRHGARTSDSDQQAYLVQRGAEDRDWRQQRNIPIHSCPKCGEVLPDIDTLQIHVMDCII
Flag-tagged OPTN(120–577): residues 120-577 of Q96CV9
GST-tagged OPTN(26–119) M44Q/M54Q (Q96CV9, form named): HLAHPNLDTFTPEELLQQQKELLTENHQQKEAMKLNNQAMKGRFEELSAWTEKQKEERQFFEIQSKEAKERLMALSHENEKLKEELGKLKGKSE
GST-tagged OPTN(26–119) L47Q/L54Q (Q96CV9, form named): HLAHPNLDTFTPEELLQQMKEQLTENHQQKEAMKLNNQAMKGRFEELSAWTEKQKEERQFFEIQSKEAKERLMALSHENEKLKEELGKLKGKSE

These are yes or no findings as the source states them, for the method shown. For some assays here: Binding seen in cells or lysates may run through a third protein. Some binding calls cover weakened binding; strength is not graded here. Where a sequence is shown, tags or fusion partners need not be part of it.

B1: Trx-His-tagged TBK1 CTD (residues 677–729) (domain or fragment, UniProt Q9UHD2 677-729)
chain: YPSSNTLVEMTLGMKKLKEEMEGVVKELAENNHILERFGSLTMDGGLRNVDCL
For the molecule B1, the binding result in test [1] and in test [2] was “no binding” each time.

B2: GFP-tagged TBK1 (residues 1–729) (protein, UniProt Q9UHD2 1-729)
chain: MQSTSNHLWLLSDILGQGATANVFRGRHKKTGDLFAIKVFNNISFLRPVDVQMREFEVLKKLNHKNIVKLFAIEEETTTRHKVLIMEFCPCGSLYTVLEEPSNAYGLPESEFLIVLRDVVGGMNHLRENGIVHRDIKPGNIMRVIGEDGQSVYKLTDFGAARELEDDEQFVSLYGTEEYLHPDMYERAVLRKDHQKKYGATVDLWSIGVTFYHAATGSLPFRPFEGPRRNKEVMYKIITGKPSGAISGVQKAENGPIDWSGDMPVSCSLSRGLQVLLTPVLANILEADQEKCWGFDQFFAETSDILHRMVIHVFSLQQMTAHKIYIHSYNTATIFHELVYKQTKIISSNQELIYEGRRLVLEPGRLAQHFPKTTEENPIFVVSREPLNTIGLIYEKISLPKVHPRYDLDGDASMAKAITGVVCYACRIASTLLLYQELMRKGIRWLIELIKDDYNETVHKKTEVVITLDFCIRNIEKTVKVYEKLMKINLEAAELGEISDIHTKLLRLSSSQGTIETSLQDIDSRLSPGGSLADAWAHQEGTHPKDRNVEKLQVLLNCMTEIYYQFKKDKAERRLAYNEEQIHKFDKQKLYYHATKAMTHFTDECVKKYEAFLNKSEEWIRKMLHLRKQLLSLTNQCFDIEEEVSKYQEYTNELQETLPQKMFTASSGIKHTMTPIYPSSNTLVEMTLGMKKLKEEMEGVVKELAENNHILERFGSLTMDGGLRNVDCL
Turning to B2, the binding entry in test [3] was “binds”; in test [4], “no binding”.

B3: GFP-tagged TBK1 (residues 1–674) (domain or fragment, UniProt Q9UHD2 1-674)
chain: MQSTSNHLWLLSDILGQGATANVFRGRHKKTGDLFAIKVFNNISFLRPVDVQMREFEVLKKLNHKNIVKLFAIEEETTTRHKVLIMEFCPCGSLYTVLEEPSNAYGLPESEFLIVLRDVVGGMNHLRENGIVHRDIKPGNIMRVIGEDGQSVYKLTDFGAARELEDDEQFVSLYGTEEYLHPDMYERAVLRKDHQKKYGATVDLWSIGVTFYHAATGSLPFRPFEGPRRNKEVMYKIITGKPSGAISGVQKAENGPIDWSGDMPVSCSLSRGLQVLLTPVLANILEADQEKCWGFDQFFAETSDILHRMVIHVFSLQQMTAHKIYIHSYNTATIFHELVYKQTKIISSNQELIYEGRRLVLEPGRLAQHFPKTTEENPIFVVSREPLNTIGLIYEKISLPKVHPRYDLDGDASMAKAITGVVCYACRIASTLLLYQELMRKGIRWLIELIKDDYNETVHKKTEVVITLDFCIRNIEKTVKVYEKLMKINLEAAELGEISDIHTKLLRLSSSQGTIETSLQDIDSRLSPGGSLADAWAHQEGTHPKDRNVEKLQVLLNCMTEIYYQFKKDKAERRLAYNEEQIHKFDKQKLYYHATKAMTHFTDECVKKYEAFLNKSEEWIRKMLHLRKQLLSLTNQCFDIEEEVSKYQEYTNELQETLPQKMFTASSGIKHTMT
B3: the binding entry in test [3] is on record as “no binding”.

These data come from article PMC5027247.
